Among all 360,000 compounds or so, about 11,000 (3.1%) were called active. This list was built around the results that the source calls inconclusive (neither active nor inactive); the mix of calls is not that of the screen. Calls follow the shape of the dose curve; as a rule, active = well fitted inhibition curve with a large enough effect; inconclusive = small, poorly fitted or top-dose-only effect; inactive = no such curve, though single readings can be large or run the other way. Potencies of inconclusive entries are left out as doubtful fits.
Biological target: Schistosoma mansoni thioredoxin glutathione reductase (TGR) (UniProt Q962Y6)
Assay: qHTS Assay for the Inhibitors of Schistosoma Mansoni Peroxiredoxins; also: nearly all actives have a fitted effect of over 60% in size
Conditions: purified TGR, DTNB reduction, TNB absorbance 405 nm; activity change, negative = inhibition: at 114 µM (top of the series) unless noted
Method in brief: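 TGR 20 nM + NADPH 100 uM (dispensed conc.), cpd preinc 15 min RT; start with NADPH (500 uM addition) then DTNB (15 mM addition). Kinetic TNB absorbance, 405 nm filter. Four-parameter Hill fit across titration.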
% is scaled to controls: 0 for no effect and ±100 for the full control effect; potency is read from the fitted curve at half-maximal effect; tags tell the direction and shape of the fitted curve.

Row | SMILES | Potency | activity change, negative = inhibition
1 | COc1ccc(C(C(C(=O)c2ccco2)N2CCOCC2)N2CCOCC2)cc1 (stereo not given) | active: 44.7 µM | –
2 | COc1ccc(NC(=S)NC(NC(=O)CF)C(Cl)(Cl)Cl)cc1[N+](=O)[O-] (stereo not given) | active: 35.5 µM | –
3 | CCCN(CCC)S(=O)(=O)c1ccc(NC(=O)Cc2cccs2)cc1 | inconclusive [inhibitor, partial curve, poor fit] | –
4 | CC(C)c1onc(C(=O)NCc2cccs2)c1[N+](=O)[O-] | inconclusive [inhibitor, partial curve] | –
5 | COc1cccc(N2C(=O)NC(=O)/C(=C\c3cn(C)c4ccccc34)C2=O)c1 | inconclusive [inhibitor, partial curve] | –
6 | Cc1nccc(-c2cccc(N/N=C(\C#N)C(=O)c3ccccc3)c2)n1 | inactive | –
7 | Cn1nc(C(F)(F)F)c(-c2ccc(Br)cc2)c1NC(=O)c1nccnc1C(=O)O | inactive | –
8 | CC1=CC(c2ccc(Cl)cc2)n2nc(NS(=O)(=O)c3ccc(C)cc3)nc2N1 (stereo not given) | active: 31.6 µM | –
9 | CCN(CC)CCCNC(=O)CSc1c2c(nc3cc(Cl)ccc13)CCCC2 | inconclusive [inhibitor, partial curve] | –
10 | Cc1cc(C)c2nc(N(Cc3cccnc3)C(=O)c3ccc(S(=O)(=O)N(C)C)cc3)sc2c1 | inactive | –
11 | COC(=O)C1(C)NC(c2cccc(C)c2)C2C(=O)N(c3ccc(F)cc3)C(=O)C21 (stereo not given) | inactive | –
12 | Cc1oc(-c2cccs2)nc1CN1CC[C@@](O)(c2ccccc2)[C@H]2CCCC[C@@H]21 | inactive | –
13 | C=C1CCN(C(C)C(=O)O)S(=O)(=O)c2ccccc21 (stereo not given) | inconclusive [inhibitor, partial curve] | –
14 | Cc1ccc2nc(N3CCN(Cc4ccc(F)cc4)C3=O)c(C)cc2c1 | inactive | –
15 | COc1ccc(OC)c(CNC(=O)C2CCC(=O)N2C(C)C)c1 (stereo not given) | inactive | –
16 | Cc1ccc(-c2cn3nc(C)c(C)nc3n2)cc1 | inconclusive [inhibitor, partial curve] | –
17 | CCOc1cccc(N2C(=O)CC(NCc3ccc(S(N)(=O)=O)cc3)C2=O)c1 (stereo not given) | inconclusive [inhibitor, partial curve] | –
18 | FC(F)Oc1ccc(C2N=C(c3ccccc3)NO2)cc1 (stereo not given) | inconclusive [inhibitor, partial curve] | –
19 | COc1cccc(NC(=O)CCN2C(=O)c3cccc([N+](=O)[O-])c3C2=O)c1 | inconclusive [inhibitor, full curve, poor fit] | –
20 | COc1ccc(CN2CCNC(=O)C2CC(=O)N(C)CC2CCOCC2)cc1C (stereo not given) | inconclusive [inhibitor, partial curve] | –
21 | COc1ccc(C=C(C(C)=O)C(C)=O)cc1OC | inconclusive [inhibitor, partial curve, poor fit] | –
22 | COC(=O)c1sccc1NC(=O)Nc1ccc(C)cc1C | inactive | –
23 | Cn1cnc([N+](=O)[O-])c1NCc1ccccc1 | inactive | –

Row | SMILES | Potency | activity change, negative = inhibition
24 | CN1C(=O)/C(=C/C=C/c2ccco2)C(=O)NC1=S | inconclusive [inhibitor, full curve, poor fit] | –
25 | Cn1c(S(=O)(=O)c2ccc([N+](=O)[O-])cc2)nc(Br)c1Br | inconclusive [inhibitor, full curve] | –
26 | CC1C/C(=C/c2ccco2)C(=O)/C(=C/c2ccco2)C1 (stereo not given) | active: 1.41 µM | –
27 | COc1cc(/C=C2\CCc3c2nc2ccccc2c3C(=O)O)cc(OC)c1OC | inconclusive [inhibitor, full curve] | –
28 | O=C(COC(=O)c1cccs1)Nc1nc(-c2ccccc2)cs1 | inconclusive [inhibitor, partial curve] | –
29 | O=C(OCC(=O)c1cccs1)c1ccc([N+](=O)[O-])o1 | inconclusive [inhibitor, full curve, poor fit] | –
30 | CCn1nc(C)cc1C(=O)Sc1ccc(C)cc1 | active: 17.8 µM | –
31 | O=C(/C=C/c1ccncc1)c1cc(Cl)ccc1O | inconclusive [inhibitor, partial curve] | –
32 | CCCCc1nc2sc3c(c2c(=O)n1NC(=O)c1ccco1)CC(C)(C)OC3 | inconclusive [inhibitor, partial curve] | –
33 | Cc1cc(C(=O)CSc2nnc(-c3ccco3)o2)c(C)n1Cc1ccco1 | inconclusive [inhibitor, partial curve] | –
34 | CCC(=Nc1ccccc1N)c1c(O)[nH]c(=O)[nH]c1=O | inconclusive [inhibitor, full curve] | –
35 | COc1cccc(/C=C2\Oc3cc(OCC(=O)N4Cc5ccccc5C[C@H]4C(=O)O)ccc3C2=O)c1 | – | inconclusive: -37.3% [inhibitor]
36 | OCCC1CN(CC#Cc2ccccc2)CCN1C1CCCC1 (stereo not given) | inconclusive [inhibitor, partial curve] | –
37 | COc1cccc(/C=N/Nc2ncnc3c2ncn3Cc2ccccc2)c1O | inactive | –
38 | Cc1ccc(C)c2c1cc(C)c1nnc(SCC(=O)c3cccs3)n12 | inconclusive [inhibitor, partial curve] | –
39 | Cc1ccc(NC(=O)Cn2nc(-c3ccncc3)ccc2=O)cc1Cl | inconclusive [inhibitor, single point] | –
40 | COc1ccc(C(=O)/C=C/c2cc(C(=O)O)cc3c2OCOC3)c(O)c1 | inconclusive [inhibitor, partial curve] | –
41 | CC(=O)Oc1ccc(C(=O)[C@H]2[C@H]3C(=O)N(c4ccc(C)cc4C)C(=O)[C@H]3[C@@H]3C=CC=NN32)cc1 | active: 17.8 µM | –
42 | Cc1cccnc1NC(=O)C1CCCN1S(=O)(=O)c1ccc(Cl)cc1 (stereo not given) | inconclusive [inhibitor, full curve, poor fit] | –
43 | O=S1(=O)c2ccccc2C(CCO)N1Cc1ccccc1 (stereo not given) | active: 28.2 µM | –
44 | COc1ccc(C(C)=O)cc1COc1ncnc2ccccc12 | inconclusive [inhibitor, partial curve] | –
45 | COc1ccc(C(=O)N2CCCC(CCC(=O)NCc3ccc(F)c(F)c3)C2)o1 (stereo not given) | inconclusive [inhibitor, partial curve] | –
